From the RNAGym collection of RNA variant scans (doi:10.1093/nar/gkz1192)
The source gives no read counts; variants with many changes may rest on few reads.

B1: CPEB3 Ribozyme (parent)
chain: UAACAGGGGGCCACAGCAGAAGCGUUCACGUCGCAGCCCCUGUCAGAUUCUGGUGAAUCUGCGAAUUCUGCUGUAUAUCUC

Variants of: B1
Experiment: self-cleavage, relative activity (ratio to wild type); higher = more cleavage; in vitro, sequencing
Method in brief: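 Relative activity was defined as the cleaved/total read fraction for a variant divided by the same fraction for the unmutated ribozyme. CPEB3 self-cleaving ribozyme libraries were made by rounds of error-prone PCR, barcoded, and transcribed in vitro with T7 RNA polymerase for 5 hours at 37°C, and cleavage ran through transcription plus a 15 min DNase I step before EDTA. Illumina sequencing of template-switched reverse transcripts gave the reads, and DNA sequencing mapped the barcodes. Averages come from three batches, using variants with at least 5 reads.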

Which self-cleavage does the source give for A5G C12U A21U A47U U58A U66A here?
The self-cleavage was 0.81.

For A5G A15G U78A, which self-cleavage is on record?
Its self-cleavage is 0.74.

With A5G A35G U48C as the variant, how does the self-cleavage read?
The self-cleavage was 0.92.

For A5G G9U A21G C34U U54C U78C U80C, which self-cleavage is on record?
Its self-cleavage is 0.05.

With A5G G8A U25C A35G U54C as the variant, how does the self-cleavage read?
Its self-cleavage is 0.69.

For A5G A15G U25C A56U G61U U72A, which self-cleavage is on record?
The self-cleavage was 0.16.

With A5G C12A A13G U25C U26G as the variant, how does the self-cleavage read?
Its self-cleavage is 0.16.

With A5G A57G A65G U66C as the variant, how does the self-cleavage read?
Its self-cleavage is 0.21.

Which self-cleavage does the source give for A5G A65G U76C here?
The self-cleavage was 0.32.

With A5G A21G A28U G30U U41C U60C A65G as the variant, how does the self-cleavage read?
The self-cleavage was 0.07.

With A5G A15U U31C U54G U60A A75G as the variant, how does the self-cleavage read?
The self-cleavage was 0.09.

With A5G C23U U26C A35G U60C U67C as the variant, how does the self-cleavage read?
Its self-cleavage is 0.22.

For A5G A18U G36A U54C, which self-cleavage is on record?
The self-cleavage was 0.18.

Which self-cleavage does the source give for A5C A35U U41C A45U U72C A75C here?
The self-cleavage was 0.1.

For A5G C17U A45G A56G A64G, which self-cleavage is on record?
Its self-cleavage is 0.06.

For A5G A57G A64G U78C, which self-cleavage is on record?
The self-cleavage was 0.48.

For A5G G7C A21C, which self-cleavage is on record?
Its self-cleavage is 0.08.

With A5G G8C A18G A28G U60C U67C as the variant, how does the self-cleavage read?
The self-cleavage was 0.13.

With A5G A15G C29U A64U U72A as the variant, how does the self-cleavage read?
The self-cleavage was 0.12.

With A5G G7C A18G A56G U60G A65G as the variant, how does the self-cleavage read?
Its self-cleavage is 0.09.

For A5C A35G G63A U67C, which self-cleavage is on record?
The self-cleavage was 0.71.

Which self-cleavage does the source give for A5G G7U A28G U72C here?
The self-cleavage was 0.4.

Which self-cleavage does the source give for A5C A47G U69A U80C here?
Its self-cleavage is 0.48.

For A5G A45U U48C, which self-cleavage is on record?
Its self-cleavage is 0.08.

Which self-cleavage does the source give for A5G A18G U31C G33A C38U C62G U72A here?
Its self-cleavage is 0.1.

Which self-cleavage does the source give for A5G A15U A28G U80C here?
The self-cleavage was 0.11.

Which self-cleavage does the source give for A5C A35G U48C A57G G63A U66C U67C here?
The self-cleavage was 0.19.

Which self-cleavage does the source give for A5G A20G U48C A65G here?
The self-cleavage was 0.56.

For A5G A15G U26C A45G A56U, which self-cleavage is on record?
Its self-cleavage is 0.06.

With A5G A15G C40U U78C as the variant, how does the self-cleavage read?
The self-cleavage was 0.15.

With A5G G16A U41G U72C U78C as the variant, how does the self-cleavage read?
The self-cleavage was 0.08.

For A5G A47G U48C U74A, which self-cleavage is on record?
The self-cleavage was 0.49.

Which self-cleavage does the source give for A5G C32G U49C U51C U54C here?
The self-cleavage was 0.09.

Which self-cleavage does the source give for A5G G7U A13G A18U U26A U74C here?
The self-cleavage was 0.52.

Which self-cleavage does the source give for A5G A21G U49C U54G U80A here?
Its self-cleavage is 0.09.

For A5G A28G A56G C59A U60C A77G, which self-cleavage is on record?
The self-cleavage was 0.08.

With A5C G33U G55C A65U U72A as the variant, how does the self-cleavage read?
Its self-cleavage is 0.07.

Which self-cleavage does the source give for A5C A28G A64G U69A here?
Its self-cleavage is 0.13.

With A5C U69A U74C as the variant, how does the self-cleavage read?
The self-cleavage was 0.7.

Which self-cleavage does the source give for A5C C50U U58C U69C C81G here?
Its self-cleavage is 0.12.

For A5G G9A A21G U49C A56G A57G U72C, which self-cleavage is on record?
Its self-cleavage is 0.01.

With A5C G61A U78C as the variant, how does the self-cleavage read?
The self-cleavage was 0.5.

Which self-cleavage does the source give for A5G A13C A45G A75G U78A here?
The self-cleavage was 0.46.

For A5G A13U U60C U72C, which self-cleavage is on record?
The self-cleavage was 0.3.

For A5G A28G A47U U54A A56U A64G U80A, which self-cleavage is on record?
The self-cleavage was 0.09.

With A5G C38A U43C U48C U51C A65G U69C as the variant, how does the self-cleavage read?
Its self-cleavage is 0.03.

With A5C U51A U58C G73A as the variant, how does the self-cleavage read?
The self-cleavage was 0.6.

For A5G A13G A18U A47G C62U, which self-cleavage is on record?
Its self-cleavage is 0.16.

With A5G A15G A21G A28G U76G as the variant, how does the self-cleavage read?
The self-cleavage was 0.43.

For A5G A13U A18G A28G A35G U49C U67A, which self-cleavage is on record?
Its self-cleavage is 0.09.

Which self-cleavage does the source give for A5G A47U U49C U78C here?
Its self-cleavage is 0.34.

Which self-cleavage does the source give for A5G C17A A28G A75U U78C here?
The self-cleavage was 0.35.

For A5G A15G U25C G33A, which self-cleavage is on record?
Its self-cleavage is 0.06.

Which self-cleavage does the source give for A5G C39G U54C U69C U72C here?
The self-cleavage was 0.03.

Which self-cleavage does the source give for A5G A20G C38U here?
Its self-cleavage is 0.49.

For A5G C38A A64C, which self-cleavage is on record?
Its self-cleavage is 0.22.

With A5G A13G U78C as the variant, how does the self-cleavage read?
The self-cleavage was 0.58.

With A5G C11U U25C A35U U69C C81U as the variant, how does the self-cleavage read?
Its self-cleavage is 0.03.

With A5G G7U A15G A35C A57G U78C as the variant, how does the self-cleavage read?
The self-cleavage was 0.36.

Which self-cleavage does the source give for A5G G16C U51A here?
Its self-cleavage is 0.38.

For A5G A20G G42A, which self-cleavage is on record?
Its self-cleavage is 0.37.

Which self-cleavage does the source give for A5G A28U U31C U60A here?
Its self-cleavage is 0.28.

For A5G A28U C34U U48C U51A U58C U80A, which self-cleavage is on record?
Its self-cleavage is 0.08.

Which self-cleavage does the source give for A5G G9A A28G U58A G73U here?
The self-cleavage was 0.07.

With A5G G16A U43C A64G U66C as the variant, how does the self-cleavage read?
Its self-cleavage is 0.06.

Which self-cleavage does the source give for A5G A13G A35G U48C here?
The self-cleavage was 0.09.

With A5G A20G U48C as the variant, how does the self-cleavage read?
Its self-cleavage is 0.79.

Which self-cleavage does the source give for A5G G8A C12G A57G here?
Its self-cleavage is 0.07.

Which self-cleavage does the source give for A5G A13U U41A U49A U72C U80C here?
Its self-cleavage is 0.15.

With A5G A13C U43C A64U as the variant, how does the self-cleavage read?
Its self-cleavage is 0.11.

Which self-cleavage does the source give for A5G C17U U41A U48A A56G U74C here?
The self-cleavage was 0.05.

For A5G A20G U60A U69A, which self-cleavage is on record?
Its self-cleavage is 0.31.

With A5G G10A C23U U43A U74C A75U as the variant, how does the self-cleavage read?
The self-cleavage was 0.06.

With A5G A13U U51A U72C as the variant, how does the self-cleavage read?
Its self-cleavage is 0.82.

For A5C C34U A35G A56G U78C, which self-cleavage is on record?
Its self-cleavage is 0.27.

Which self-cleavage does the source give for A5G A21G A45U U49C here?
The self-cleavage was 0.23.

For A5G G9A A15U A20G U72C, which self-cleavage is on record?
Its self-cleavage is 0.08.

With A5G C12U A20U A21U A47U U72C G73A as the variant, how does the self-cleavage read?
Its self-cleavage is 0.08.

Which self-cleavage does the source give for A5C U49C U67C here?
Its self-cleavage is 0.08.

For A5G G8A U58C U69A, which self-cleavage is on record?
Its self-cleavage is 0.13.

Which self-cleavage does the source give for A5G G7A A18G U48C A65G here?
Its self-cleavage is 0.36.

With A5G A45G U51A as the variant, how does the self-cleavage read?
The self-cleavage was 0.46.

Which self-cleavage does the source give for A5G A28G C34U U54G U69C here?
Its self-cleavage is 0.1.

For A5G A15U U41A U43C A47G A56U U67G, which self-cleavage is on record?
Its self-cleavage is 0.07.
